1 compound from patent US8536096B2, “Method for controlling coniferous plants” (BASF Aktiengesellschaft, priority 2003, dated 2013) can be followed below.

In assay [1] the test system is Wildling pine of the variety Loblolly (Pinus taeda L.). Put plainly: Greenhouse postemergence spray on wildling pine seedlings, damage rating. Format: in vivo. The settings on record: rate 0.56 kg active/ha, day 30 after treatment, scale 0 = no damage, 100 = complete destruction, means of four replications. As to the method:
Water was used as the carrier.
Here, the herbicidal compositions were suspended or emulsified in water as distribution medium to obtain a spray liquor, which was sprayed on the wildlings by using finely distributing nozzles, e.g. even flat fan spray nozzles. Spray liquor rate was 183 l/ha. The experiment was set up as a completely random design with four replications (one seedling per replication).
The test period extended over 30 days at 27° C. During this time, the plants were tended, and their response to the treatments with the active compound was evaluated.
The evaluation for the damage caused by the chemical compositions was carried out using a scale from 0 to 100%, compared to the untreated control plants. Here, 0 means no damage and 100 means complete destruction of the plants.

Assay [2] relates to wildling pine of the variety Loblolly (Pinus taeda). Put plainly: Field experiment site two, postemergence spray on natural population of wildling pine, damage rating. Conditions: rate 0.56 kg active/ha, ratings at 82 days after treatment, means of three replications.

`CC(C)C1(C)N=C(c2ncccc2C(=O)O)NC1=O` (centres unmarked) [Imazapyr, imazapyr]: the results for the “Loblolly Pine % control” value in assay [1] and in assay [2] were 0% and 10%, respectively.
